Assay [1] has as its target T1, FLAG-tagged hUpf3B (human) (UniProt Q9BZI7).
T1 sequence: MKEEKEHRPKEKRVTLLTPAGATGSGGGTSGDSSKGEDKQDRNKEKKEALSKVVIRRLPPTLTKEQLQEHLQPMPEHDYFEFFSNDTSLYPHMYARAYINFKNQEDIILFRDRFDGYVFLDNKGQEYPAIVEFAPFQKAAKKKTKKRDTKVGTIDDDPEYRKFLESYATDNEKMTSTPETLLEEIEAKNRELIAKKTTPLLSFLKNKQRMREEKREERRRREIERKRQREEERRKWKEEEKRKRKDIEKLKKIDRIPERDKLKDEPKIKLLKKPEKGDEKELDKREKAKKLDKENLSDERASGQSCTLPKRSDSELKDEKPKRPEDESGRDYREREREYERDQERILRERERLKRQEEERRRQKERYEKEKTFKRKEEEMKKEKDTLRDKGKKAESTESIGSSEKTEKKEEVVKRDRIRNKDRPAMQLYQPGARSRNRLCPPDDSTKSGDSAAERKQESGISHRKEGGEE
Description: co-IP; HeLa cells transfected 48 h with FLAG-Upf3B or a deletion mutant, lysed in the presence of RNase A, anti-FLAG antibodies; western blot.

Protein sequences, listed by entry. Tags and fused reporters are not part of them. Lines headed by an entry give the natural chain unless they say otherwise; changes in a name come on top.
UniProt Q92841: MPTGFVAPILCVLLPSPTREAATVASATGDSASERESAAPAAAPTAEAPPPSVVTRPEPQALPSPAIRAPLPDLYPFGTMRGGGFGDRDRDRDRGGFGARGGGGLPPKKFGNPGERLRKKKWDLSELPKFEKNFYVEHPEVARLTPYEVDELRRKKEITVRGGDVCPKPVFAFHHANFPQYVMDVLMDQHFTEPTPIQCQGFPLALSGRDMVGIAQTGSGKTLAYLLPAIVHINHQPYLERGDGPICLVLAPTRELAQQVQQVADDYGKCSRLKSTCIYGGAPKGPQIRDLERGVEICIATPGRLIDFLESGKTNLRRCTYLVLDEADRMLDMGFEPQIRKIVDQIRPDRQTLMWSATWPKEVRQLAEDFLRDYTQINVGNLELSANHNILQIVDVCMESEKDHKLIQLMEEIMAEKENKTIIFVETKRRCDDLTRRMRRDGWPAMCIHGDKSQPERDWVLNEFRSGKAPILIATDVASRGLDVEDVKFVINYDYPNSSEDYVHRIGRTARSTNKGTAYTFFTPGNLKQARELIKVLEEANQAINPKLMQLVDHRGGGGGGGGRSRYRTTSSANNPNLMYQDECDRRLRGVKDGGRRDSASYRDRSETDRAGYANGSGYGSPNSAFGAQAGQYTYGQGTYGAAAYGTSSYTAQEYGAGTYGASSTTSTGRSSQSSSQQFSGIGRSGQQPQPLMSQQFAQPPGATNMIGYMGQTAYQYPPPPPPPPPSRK
UniProt P17844: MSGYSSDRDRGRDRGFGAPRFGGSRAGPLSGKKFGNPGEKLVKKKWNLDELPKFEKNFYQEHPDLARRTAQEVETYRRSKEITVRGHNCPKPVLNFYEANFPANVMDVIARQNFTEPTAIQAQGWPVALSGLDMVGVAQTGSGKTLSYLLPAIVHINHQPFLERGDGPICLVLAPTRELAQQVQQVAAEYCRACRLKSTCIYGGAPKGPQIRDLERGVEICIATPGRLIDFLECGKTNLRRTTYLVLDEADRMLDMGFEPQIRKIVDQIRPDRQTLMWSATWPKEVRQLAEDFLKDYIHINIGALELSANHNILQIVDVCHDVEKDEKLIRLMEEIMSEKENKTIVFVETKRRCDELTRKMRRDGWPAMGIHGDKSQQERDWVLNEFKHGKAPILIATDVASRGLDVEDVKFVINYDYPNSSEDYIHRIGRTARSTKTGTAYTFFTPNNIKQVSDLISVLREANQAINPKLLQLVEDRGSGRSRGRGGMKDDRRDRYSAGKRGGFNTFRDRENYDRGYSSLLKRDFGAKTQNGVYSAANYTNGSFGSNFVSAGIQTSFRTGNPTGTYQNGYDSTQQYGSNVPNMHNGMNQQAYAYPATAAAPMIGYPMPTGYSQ

The target of assay [2] is T2, FLAG-Upf3B 270-470 (human) (UniProt Q9BZI7).
T2 sequence: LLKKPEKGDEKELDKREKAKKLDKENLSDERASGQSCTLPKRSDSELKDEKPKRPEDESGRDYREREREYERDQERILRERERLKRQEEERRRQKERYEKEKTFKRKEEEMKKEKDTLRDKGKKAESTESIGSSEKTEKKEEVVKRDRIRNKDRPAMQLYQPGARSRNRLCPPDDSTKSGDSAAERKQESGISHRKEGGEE
The assay is described as above.

The target in the next assay is T3, FLAG-Upf3B 1-270 (human) (UniProt Q9BZI7).
T3 sequence: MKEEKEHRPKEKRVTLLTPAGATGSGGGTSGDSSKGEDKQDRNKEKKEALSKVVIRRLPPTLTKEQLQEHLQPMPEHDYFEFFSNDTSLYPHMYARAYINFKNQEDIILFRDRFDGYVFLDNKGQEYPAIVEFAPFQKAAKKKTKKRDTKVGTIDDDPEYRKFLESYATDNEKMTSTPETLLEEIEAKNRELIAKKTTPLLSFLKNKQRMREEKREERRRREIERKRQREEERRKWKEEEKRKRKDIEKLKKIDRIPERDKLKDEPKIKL
The assay is described as above.

The target of assay [3] is T1, FLAG-tagged hUpf3B (human). Description: pull-down; FLAG-Upf3B (bait) bound to anti-FLAG antibody on protein A-sepharose in the presence of RNase A overnight, washed; HeLa cell extracts with the KT3-tagged Ddx5 deletion mutant (prey) added for 4 h; western blot with anti-Upf3B and anti-KT3; only the target purified. A general note: Immunoblotting shows a protein as a band on a membrane.

No constants are given. Whether binding was seen depends on the method and setting. In cells and extracts the contact can be indirect. Some entries that bind do so weakly or less than the wild type. Sequences can lack the tags named with a protein.

Consider “Ddx17 (p72), endogenous (from UniProt Q92841 1-729)”, for which, in assay [1], the binding entry is recorded as “binds”. Consider “Ddx5 (p68), endogenous (from UniProt P17844 1-614)”, for which the binding result is “binds” in assay [2], “binds” in assay [1] and “no binding” with FLAG-Upf3B 1-270 (human). As for “Ddx5-190-614-KT3 (from UniProt P17844 190-614) (domain or fragment)”, the binding entry in assay [3] was “no binding”.

Regarding “Ddx5-1-189-KT3 (from UniProt P17844 1-189) (domain or fragment)”, the binding result in assay [3] is reported as “binds”.
